Test results: paper PMC4336329 (PLoS ONE, 2015)
The whole screen tested about 310,000 compounds, of which about 2,200 (0.71%) showed an effect of 50% or more. The effect is printed as a negative number. The list shows a part of the results.

target: human ether-à-go-go-related gene (hERG) potassium channel (human, UniProt Q12809); test: primary screen, population patch clamp on CHO cells stably expressing hERG
Sequence (Q12809 whole entry, looked up): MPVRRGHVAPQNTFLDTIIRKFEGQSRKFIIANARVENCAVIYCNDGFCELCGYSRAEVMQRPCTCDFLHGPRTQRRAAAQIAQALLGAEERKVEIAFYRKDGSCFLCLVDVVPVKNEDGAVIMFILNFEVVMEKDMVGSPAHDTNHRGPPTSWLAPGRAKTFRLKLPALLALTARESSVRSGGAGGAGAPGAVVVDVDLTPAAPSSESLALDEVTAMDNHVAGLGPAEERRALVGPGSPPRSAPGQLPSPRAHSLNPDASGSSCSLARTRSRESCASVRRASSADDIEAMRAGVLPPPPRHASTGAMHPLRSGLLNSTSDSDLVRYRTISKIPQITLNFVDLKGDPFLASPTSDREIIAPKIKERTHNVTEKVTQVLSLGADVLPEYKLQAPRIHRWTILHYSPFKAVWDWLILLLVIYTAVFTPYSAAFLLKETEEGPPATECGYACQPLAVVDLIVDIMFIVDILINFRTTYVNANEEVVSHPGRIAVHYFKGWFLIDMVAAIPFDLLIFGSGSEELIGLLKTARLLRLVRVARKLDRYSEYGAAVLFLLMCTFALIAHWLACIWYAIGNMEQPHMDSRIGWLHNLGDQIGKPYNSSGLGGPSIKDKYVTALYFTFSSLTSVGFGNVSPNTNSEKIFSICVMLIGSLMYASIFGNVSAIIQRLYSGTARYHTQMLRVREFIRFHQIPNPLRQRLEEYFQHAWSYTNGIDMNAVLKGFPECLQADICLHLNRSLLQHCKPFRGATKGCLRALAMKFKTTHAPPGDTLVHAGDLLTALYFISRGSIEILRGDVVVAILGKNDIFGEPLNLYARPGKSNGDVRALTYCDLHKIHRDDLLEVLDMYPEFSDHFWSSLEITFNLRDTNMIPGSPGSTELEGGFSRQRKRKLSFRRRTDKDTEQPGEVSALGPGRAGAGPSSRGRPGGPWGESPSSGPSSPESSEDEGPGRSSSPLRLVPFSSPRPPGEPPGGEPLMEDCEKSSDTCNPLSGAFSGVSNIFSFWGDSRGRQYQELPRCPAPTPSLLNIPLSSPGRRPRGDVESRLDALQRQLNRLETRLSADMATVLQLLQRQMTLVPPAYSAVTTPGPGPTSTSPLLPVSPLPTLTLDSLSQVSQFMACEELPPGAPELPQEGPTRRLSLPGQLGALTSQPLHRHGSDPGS

Structure (SMILES)	hERG current change (%, negative = inhibition) at 1uM
NS(=O)(=O)c1ccc(NC(=O)COC(=O)Cc2ccc(Cl)cc2)cc1	7.03%
CCCc1cc(=O)oc2c3c(cc(OCC(=O)N[C@@H](C)C(=O)O)c12)OC(C)(C)CC3	20.3%
CCOC(=O)N1CCC(NCc2c(C(=O)N(C)Cc3ccccc3)nc3ccccn23)CC1	-8.36%
COc1nc(NC23CC4CC(CC(C4)C2)C3)nc(OC)n1	2.91%
N#Cc1c(-c2ccccc2)cc(-c2ccc(O)cc2)nc1N	19.5%
CCOC(=O)CCc1c(C)c2ccc(OCC(=O)N(CC)CC)c(C)c2oc1=O	15.8%
Cc1ccn2cc(C(=O)Nc3ccc4c(c3)OCCO4)nc2c1	-4.3%
COc1ccc(CNC(=O)N2CCN(c3cccc(Cl)c3)CC2)cc1OC	5.05%
COc1ccc(C(C)=O)cc1COC(=O)CCNS(=O)(=O)c1ccc(C(C)=O)cc1	-4.98%
O=C(COC(=O)c1ccccc1Nc1ccccc1)NCc1ccccc1Cl	5.45%
COc1ccc(N(CC(=O)NCc2ccccc2OC)S(=O)(=O)c2ccc(C)cc2)cc1Cl	5.56%
N#Cc1c(NC(=O)CSc2nc(N)cc(=O)[nH]2)sc2c1CCCCCC2	1.9%
C=CCN1C(=O)C(O)(CC(=O)c2ccccc2)c2ccccc21 (stereo not shown)	9.28%
CCOc1cccc2c1OC1(C)CC2NC(=O)N1c1cccc(C(=O)NCc2ccccn2)c1 (stereo not shown)	16.7%
CCC(CC)C(=O)Nc1cccc(C(=O)N2CCCC2)c1	12.6%
Cc1ccccc1N=Nc1c(C)[nH]n(C(N)=S)c1=O	14.3%
C=CCn1c(SCc2ccccc2)nc2scc(-c3ccc(C)o3)c2c1=O	10%
CCN(C(=O)CSc1nc2ccccc2n1CC)C1CCS(=O)(=O)C1 (stereo not shown)	4.73%
Nc1c(Cl)cc(-c2csc(NC(CO)c3nc4ccccc4n3CCOCCO)n2)cc1Cl (stereo not shown)	10.6%
CC1Cc2cc(S(=O)(=O)N3CCN(c4ccc(Cl)cc4)CC3)ccc2N1C(=O)C1CC1 (stereo not shown)	21.1%
CCOC(=O)Cc1sc(N)nc1C	17.3%
Cc1nc(SCCOc2ccc(F)cc2)c2ccccc2n1	9.34%

Structure (SMILES)	hERG current change (%, negative = inhibition) at 1uM
O=C(Cn1cc([N+](=O)[O-])cn1)NC1CCCCCC1	4.56%
CCOC(=O)c1ccc(NC(=O)c2cc3c(s2)CCC3)cc1	8.23%
CCn1c(SCC(=O)Nc2ccc3c(c2)OCCO3)nnc1-c1c[nH]c2ccccc12	10.6%
O=C(N/N=C/c1ccccc1)c1cccc2ccccc12	10.4%
CN(Cc1ccccc1)c1ccc2nnc(-c3ccccc3)n2n1	4.4%
CN1CCN(C(c2ccc(C(F)(F)F)cc2)c2cc(Cl)c3cccnc3c2O)CC1 (stereo not shown)	14.6%
Cc1ccc(C)c(S(=O)(=O)NCc2ccc(C(=O)N3CC(C)OC(C)C3)cc2)c1 (stereo not shown)	8.81%
CC1=CC(=C(C#N)C#N)C=C(C)N1CCN1CCN(C(=O)Nc2cccc(Cl)c2)CC1	5.35%
Cc1ccc2nc(NC(=O)C3CCN(S(=O)(=O)c4cccc5nsnc45)CC3)sc2c1	14.2%
COc1ccccc1N1CCN(C(=O)/C=C/c2ccco2)CC1	13.3%
Cc1[nH]nc2c1C(c1ccco1)C(C#N)=C(N)O2 (stereo not shown)	7.49%
O=c1c2c3c(sc2ncn1/N=C/c1ccco1)CCCC3	-5.22%
CSc1nsc(SCC(=O)Nc2ccc(Br)cn2)n1	8.32%
O=C(Nc1ccccc1)Nc1sccc1-c1nc2ccccc2s1	1.3%
CC(C)CN(C(=O)COC(=O)Cc1cccc2ccccc12)c1c(N)n(Cc2ccccc2)c(=O)[nH]c1=O	5.78%
O=C(Nc1ccccc1Cl)N1CCCN(c2nc(-c3ccccc3)ns2)CC1	5.92%
Cc1onc(-c2ccccc2)c1C(=O)Nc1nnc(C(C)(C)C)s1	12.9%
O=C(C1CC1)N1CCN=C1SCc1ccccc1	9.5%
O=C(Nc1ccccc1)N1CCN(c2ccccn2)CC1	-1.51%
NC(=O)c1c(NC(=O)CN2C(=O)NC(Cc3ccccc3)C2=O)sc2c1CCC2 (stereo not shown)	8.38%
Cc1cc(N/N=C/c2ccc(O)cc2)nc(NS(=O)(=O)c2ccccc2)n1	14.6%
Cn1c(CC2Sc3ccccc3NC2=O)nnc1SCC(=O)c1ccc(Cl)cc1 (stereo not shown)	8.3%

Structure (SMILES)	hERG current change (%, negative = inhibition) at 1uM
Cc1cc(NC(=O)c2oc3ccccc3c2C)ccc1-n1cnnn1	8.11%
COc1ccc(CC(=O)n2[nH]c(=O)c3ccccc3c2=O)cc1OC	12.3%
CN(c1ccccc1)S(=O)(=O)c1ccc(C(=O)Nc2nnc(C3=COCCO3)o2)cc1	-3.78%
O=C(N/N=C/c1c(O)n(Cc2ccc(F)cc2)c(=O)[nH]c1=O)c1ccccc1O	12.2%
O=C1CCC(=O)N1c1ccc(NCCc2cccc(F)c2)c([N+](=O)[O-])c1	8.55%
O=c1[nH]c(S)c(/C=C2\C=Nc3ccccc32)s1	16.9%
CCOC(=O)N1CCN(S(=O)(=O)c2ccc(C(=O)Nc3nc4ccc(F)cc4s3)cc2)CC1	-3.52%
COC(=O)N/N=C\c1cc(Br)ccc1OCc1ccccc1	14.8%
COc1ccc(-c2ccc(NS(=O)(=O)c3cc([N+](=O)[O-])ccc3C)cc2)nn1	12.7%
Cc1cc(=O)n2[nH]c(C)cc2n1	16.6%
CN1CCN(c2nc3c(c(=O)[nH]c(=O)n3C)n2CC(N)=O)CC1	16.5%
Cc1ccc(-c2cc(C(=O)N3CCN(C(=O)c4ccco4)CC3)no2)cc1	-4.32%
Cn1c(=O)c2[nH]c(N/N=C(/C#N)C(N)=O)nc2n(C)c1=O	7.16%
CCOC(=O)C1CCN(C(=O)C(C)Oc2ccc(C(=O)c3ccccc3)cc2)CC1 (stereo not shown)	0.352%
O=C(NO)c1cc(OCC(F)(F)F)ccc1OCC(F)(F)F	-9.5%
O=C(CC1SC(=O)N(c2ccccc2)C1=O)Nc1cccc2ccccc12 (stereo not shown)	15.6%
CCc1cccc(NS(=O)(=O)c2c(C)nc3sc(CC)nn3c2=O)c1	0.621%
C=CCNC(=O)c1onc(CSc2cc(C)ccc2C)c1C(=O)O	4.72%
O=C(NCCNc1ccc([N+](=O)[O-])cc1)c1ccc(Cl)cc1	-9.29%
Cc1c(C)n(C)c2ccc(C(=O)NCCCN3CCN(C)CC3)cc12	17.3%
Clc1cccc(/C=N/Nc2nnc(Cl)c3ccccc23)c1	5.24%
CCOC(=O)C1(c2ccccc2)CCN(CC(=O)Nc2ccc(C)cc2)CC1	12.1%

Structure (SMILES)	hERG current change (%, negative = inhibition) at 1uM
O=C(O)C[C@H]1c2cc(C(F)(F)F)ccc2S(=O)(=O)N1Cc1ccccc1	13.1%
COc1cc(CN2CCC(C(=O)N3CCN(c4ccccc4F)CC3)CC2)ccc1O.O=C(O)C(=O)O	-2.09%
COc1ccc(/C=C/C(=O)O)cc1S(=O)(=O)NC1CCS(=O)(=O)C1 (stereo not shown)	7.36%
O=C(Nc1cccc(-n2cnnn2)c1)c1ccc(C(F)(F)F)cc1	1.36%
CC(C)Oc1ccc(C(=O)NC2=NCCS2)cc1	10.6%
Cc1ccc(CN2CCNC(=O)C2CC(=O)N(C)Cc2cnccn2)cc1 (stereo not shown)	8.07%
CCC(CC)C(=O)OCC(=O)NC12CC3CC(CC(C3)C1)C2	2.99%
CS(=O)(=O)N(CC(=O)NCCSCc1ccccc1Cl)c1ccc(F)cc1	0.996%
CNc1c([N+](=O)[O-])cnn1-c1ccccn1	2.65%
O=C(NC1CCN(Cc2ccccc2)CC1)c1cccc(S(=O)(=O)Nc2ccc(F)cc2)c1	-6.23%
Cl.O=C(CCN1CCCCCC1)Nc1cccc(F)c1	-4.99%
Cc1ccc2c(c1)C1(OCCCO1)C(=O)N2CC(=O)NN	11.6%
COc1ccc(C(CNC(=O)c2ccc(S(=O)(=O)N(C)C)cc2)N(C)C)cc1 (stereo not shown)	20.2%
Cc1ccc(NC(=O)CC2(CC(=O)O)CCCC2)c(C)c1	14.1%
Cl.Clc1cccc(Cl)c1NC1=NCCN1	10.6%
COc1cc(C)c(N(C(C)=O)c2ccccc2)c(C)c1	5.85%
CCCN1C(=O)c2ccc(C(=O)Nc3ccc4c(c3)OCO4)cc2C1=O	6.9%
CCNC(=S)N(CCc1c(C)[nH]c2ccccc12)Cc1cccnc1	0.0608%
CCCc1nc2c(sc3nc4c(cc32)COC(C)(C)C4)c(=O)n1CCN(C)C	4.67%
COc1ccc(-n2c(N)c(C(=O)NCC3CCCO3)c3nc4ccccc4nc32)c(OC)c1 (stereo not shown)	14.1%
CC(C)(C)n1[nH]c2c3c(ccc2c1=O)C(=O)c1ccccc1C3=O	11.3%
CC1=NCC(C)c2c1[nH]c1ccccc21 (stereo not shown)	3.58%
